# PubChem BioAssay AID1347073 (National Center for Advancing Translational Sciences (NCATS), 2019)
# Among all 45,000 compounds or so, about 200 (0.44%) were called active. Another 7% or so got no clear call; they are omitted. Calls come from the whole dose curve; as a rule, active = well fitted activation curve with a large enough effect; inconclusive = small, poorly fitted or top-dose-only effect; inactive = no such curve, though single readings can be large or run the other way. This is one part of the list.
# Test: qHTS of TDP-43 Inhibitors: NCGC Sytravon Library Screen; note: 0% is about no effect; nearly all actives have a fitted effect of over 55% in size
# Conditions: yeast TDP-43 toxicity rescue, BacTiter-Glo growth, 24 h; series mostly up to 46.1 µM; growth rescue (activation): at the top concentration
# How it was run: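 TDP-43-expressing yeast, pregrown in raffinose, seeded at OD600 0.02 in galactose medium with compound for 24 hr at 30 deg C. Growth read by BacTiter-Glo luminescence, so rescue of toxicity appears as activation.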
SMILES,growth rescue (activation),Potency
c1cncc(CNc2ncnc3sc4c(c23)CCC4)c1,inactive: 10.6%,
O=C(Nc1ccccc1-c1ccccc1)c1ccc(Cl)c([N+](=O)[O-])c1,inactive: 20.9%,
S=C(Nc1cc(Cl)ccc1Oc1ccccc1)N1CCN(c2ccccn2)CC1,inactive: 11.2%,
CCOC(=O)c1c(-c2ccccc2)csc1NC(=O)COc1ccc2c(C)cc(=O)oc2c1,inactive: 13.5%,
COc1cc(/C=C/C(=O)N[C@@H](Cc2c[nH]c3ccccc23)C(=O)O)ccc1O,inactive: -1.18%,
O=C(Cn1nc(C(F)(F)F)c2c1CCCC2)N1CCOCC1,inactive: 3.25%,
CCc1nc2ccccc2c(C(=O)NCc2ccc(OC)cc2)c1C,inactive: 7.48%,
C/C(=N\NC(N)=O)C1CC(CC(C)C)C(=O)O1 (centres undefined),inactive: 3.55%,
COc1ccc(N(C(=O)CNC(=O)c2ccco2)C(C(=O)NCC2CCCO2)c2ccccc2)cc1OC (centres undefined),inactive: -23.8%,
CCOc1cc(NC(=O)CCl)c(OCC)cc1NC(C)=O,inactive: -3.67%,
Cc1cc(=O)oc2cc(OC(=O)c3nn(C(C)C)c(=O)c4ccccc34)ccc12,inactive: 11.3%,
CCCC1N2CC3([N+](=O)[O-])CN1CC([N+](=O)[O-])(C2)C3(C)C (centres undefined),inactive: -45.6%,
Cc1ccc(NC(=O)CSc2ccc(C(N)=O)cc2[N+](=O)[O-])cc1,inactive: 0.108%,
COc1ccc(NC(=O)c2cccc(NC(=O)C(C)C)c2)c([N+](=O)[O-])c1,inactive: 5.57%,
CC(C)c1cc(C(=O)N2CCCC(Nc3ccc(F)cc3)C2)n[nH]1 (centres undefined),inactive: -10.4%,
O=C1CC(N2CCN(Cc3ccc(Cl)cc3)CC2)C(=O)N1CCc1ccccc1 (centres undefined),inactive: -2.35%,
O=C(NN1C(=O)/C(=C/C=C/c2ccccc2)SC1=S)c1ccncc1,inactive: 9.87%,
Cc1ccc(NC(=O)COC(=O)c2nn(C)cc2Cl)cc1,inactive: 8.57%,
CC(Sc1nnc(N)s1)C(=O)NNC(=O)c1cccc(Cl)c1 (centres undefined),inactive: 15.4%,
O=c1c2ccccc2nc(SCc2nc3ccccc3s2)n1CCCO,inactive: -14.9%,
OC[C@@H]1CN(Cc2ccc(-c3ccccc3)cc2)C[C@H](n2cnc3c(NCc4ccncc4)ncnc32)O1,inactive: 1.03%,
CCOC(=O)c1c(NC(=O)Cn2cnc([N+](=O)[O-])n2)sc2c1CCCC2,inactive: 13.8%,
Cc1ccc(CC(=O)Nc2ccc(S(=O)(=O)N3CCOCC3)cc2)cc1,inactive: 19.3%,
CC12CN(C(=O)c3ccccc3Br)CC(C)(CN(C(=O)c3ccccc3Br)C1)C2=O,inactive: 13.8%,
O=C(CN1CCCCC1)NCCNc1ccc(C(F)(F)F)cc1[N+](=O)[O-],inactive: -8.01%,
COc1cc(C(=O)c2ccccc2)c(OC)cc1C(=O)Nc1ccc(O)cc1,inactive: 5.59%,

SMILES,growth rescue (activation),Potency
CC(C)CNC(=O)C1(C)CCCN1C(=O)c1ccc2ccccc2n1 (centres undefined),inactive: 11%,
COc1ccc(CNC(=O)c2ccc(-n3cncn3)c3ccoc23)cc1OC,inactive: 25%,
Cc1c(C(=O)OC/C(O)=C(\C#N)c2nc3ccccc3[nH]2)oc2ccccc12,inactive: 3.34%,
O=C(CSc1nc2ccccc2c(=O)n1-c1ccccc1F)NC1CC1,inactive: 8.64%,
COc1ccc(-c2n[nH]c(=S)n2/N=C/C=C\c2ccccc2OC)cc1,inactive: -4.16%,
CN(C)CCNc1ncnc2c1ncn2[C@H]1CN(Cc2ccc(-c3ccccc3)cc2)C[C@@H](CO)O1,inactive: -4.55%,
O=S(=O)(Nc1ccc(Cc2ccncc2)cc1)c1ccc(Cl)s1,inactive: 1.12%,
O=C(CCS(=O)(=O)c1ccccc1)Nc1ccc(Cl)cn1,inactive: -6.14%,
CN1CCN(C(=O)c2cc(=O)c3cc(Cl)ccc3o2)CC1,inactive: 0.178%,
O=C(COc1ncnc2sccc12)NC1CCCc2ccccc21 (centres undefined),inactive: -29.7%,
COc1ccc(C2(C)NC(=O)NC2=O)cc1OC (centres undefined),inactive: 13.5%,
COc1ccc(NC(=O)NC2(C(=O)N3CCOCC3)CCCCC2)cc1,inactive: 10.9%,
COc1ccc(CC(=O)NNC(=O)CSc2nc(C)c(C)c(=O)[nH]2)cc1,inactive: -1.09%,
O=[N+]([O-])c1ccc(/C=N/Nc2nc(-c3ccccc3)c3cc(Br)ccc3n2)o1,inactive: 17.9%,
CC(C)[C@H](NC(=O)c1ccccc1)C(=O)OCC(=O)N1CCCCCC1,inactive: -29.7%,
O=C(O)CCCCCN1C(=O)C(O)=C(C(=O)/C=C/c2ccccc2)C1c1cccc([N+](=O)[O-])c1 (centres undefined),inactive: 19.2%,
CC(C)Oc1ccc(CCc2nnc(SCC(=O)O)n2-c2ccccc2)cc1,inactive: 0.464%,
Cc1[nH]c2ccccc2c1/C=N/NC(=O)CNC(=O)c1ccccc1,inactive: 10.6%,
C/C(=N/N=C/c1ccc(N(C)C)cc1)c1ccccc1,inactive: 1.52%,
COc1ccc(CNC(=O)COC(=O)CCCOc2ccc(Cl)cc2Cl)cc1OC,inactive: -18%,
CC1(C(=O)NCc2cccc3ccccc23)CCN1Cc1ccc(-c2ccccc2)o1 (centres undefined),inactive: 14.1%,
Cc1c(C)c2ccc(OS(C)(=O)=O)c(C)c2oc1=O,inactive: 23.1%,
CCCCCN1CC(=O)N2Cc3[nH]c4ccccc4c3C[C@H]2C1=O,inactive: 3.2%,
O=C(c1ccco1)N1N=C(c2ccncc2)CC1(O)C(F)(F)F (centres undefined),inactive: -6.76%,
O=C(c1ccc([N+](=O)[O-])cc1)N1CCN(Cc2ccccc2[N+](=O)[O-])CC1,inactive: -0.638%,
Cc1cccc(C)c1OCc1nc2c3cnn(-c4ccccc4Br)c3ncn2n1,inactive: 4.42%,

SMILES,growth rescue (activation),Potency
COc1cc(NC(=O)c2cc(C3CC3)nc3c2c(C)nn3-c2ccc(C)cc2)cc(OC)c1,inactive: 9.82%,
O=C(NCc1cccs1)c1ccc(Cl)c(S(=O)(=O)N2CCCC2)c1,inactive: 14.6%,
CNS(=O)(=O)c1ccc(NC(=O)Nc2cccc(F)c2)cc1,inactive: 0.931%,
CC1(C(=O)Nc2cccc3ncccc23)CCN1C(=O)C1(c2ccccc2)CC1 (centres undefined),inactive: 2.56%,
O=S(=O)(c1ccc(Br)c2nsnc12)N1CCOCC1,inactive: 2.95%,
O=C(COC(=O)COc1ccc(Cl)cc1Cl)NC1CCCC1,inactive: 1.39%,
COC(=O)[C@@H]1CCCN1C(=O)CCc1nnc(CCC2CCCCC2)o1,inactive: -5.61%,
Cc1ccc(NC(=O)C(=O)NCCOc2ccc(Cl)cc2)c(C)c1,inactive: 15.4%,
Cc1ccc(-c2cnc(C(O)c3cccc(C)c3C)[nH]2)cc1 (centres undefined),inactive: 1.51%,
CNC(=O)CNC(=O)Nc1ccc(C)cc1,inactive: -1.97%,
Cc1ccc2nc(N3C(=O)C(O)=C(C(=O)c4cc5ccccc5o4)C3c3cccs3)sc2c1 (centres undefined),inactive: 3.51%,
Cc1ccc(C(O)c2ncc(-c3ccc(C(F)(F)F)cc3)[nH]2)cc1F (centres undefined),inactive: 16.5%,
CCN(CC)S(=O)(=O)c1ccc2c(c1)N(CC(=O)Nc1ccc(F)cc1)C(=O)CO2,inactive: 3.02%,
CCN(CC)S(=O)(=O)c1cc(NC(=O)CCNC(=O)c2ccccc2Cl)ccc1C,inactive: 7.36%,
COc1cc(NC(=O)CN2CCN(Cc3ccc4c(c3)OCO4)CC2)cc(OC)c1,inactive: 15.8%,
CC(C)(C)NC(=O)c1ccc2c(c1)N(CC(=O)NC1CCCC1)C(=O)C(C)(C)O2,inactive: -1.35%,
OC(c1cccc(CN2CCCCC2)c1)c1ncc(-c2ccccc2Cl)[nH]1 (centres undefined),inactive: 17.3%,
COc1ccc(OC)c(S(=O)(=O)NC2CCSc3ccccc32)c1 (centres undefined),inactive: 21.5%,
O=C(CSCc1ccccc1)NCCCN1CCOCC1,inactive: -4.79%,
O=C(Nc1ccc(C(F)(F)F)cc1)c1ccc(NC(=O)C2CCCO2)cc1 (centres undefined),inactive: 11%,
CCOC(=O)c1c(-c2ccc(F)cc2)csc1NC(=O)C1CC=CCC1C(=O)O (centres undefined),inactive: 16%,
CCn1cc(C=C2C(=O)c3ccccc3C2=O)c2ccccc21,inactive: 13.4%,
Cc1cccc(-c2noc(CCC(=O)NC3CCCC3)n2)c1,inactive: 29.6%,
O=C(CSc1nc2ccccc2c(=O)[nH]1)Nc1ccccc1O,inactive: -15.8%,
CCN(CC)c1ccc(NC(=O)c2cnn(CC)c2)cc1,inactive: 5%,
COc1ccc(NC(=O)/C(=C\c2ccco2)NC(=O)c2ccco2)cc1,inactive: 11.3%,

SMILES,growth rescue (activation),Potency
Cn1c(CO)cnc1SCc1ccc(F)cc1,inactive: -13.3%,
O=C(NN=C(Cc1ccccc1)Cc1ccccc1)c1ccccc1O,inactive: -2.24%,
CC1(C)NC(=O)N(CC(=O)OCC(=O)Nc2cc(S(=O)(=O)N3CCCCCC3)ccc2Cl)C1=O,inactive: 4.15%,
O=C(OCC1OC2OC3(CCCCC3)OC2C2OC3(CCCCC3)OC12)c1ccccc1 (centres undefined),inactive: 20.5%,
CC(N=C1NS(=O)(=O)c2ccccc21)C(=O)NCc1ccc(F)cc1 (centres undefined),inactive: 2.45%,
COc1ccc(OCCCn2c(=O)oc3ccc(C)cc32)cc1,inactive: 26.4%,
Cc1ccc(-c2nnn(CC(=O)N(CC3CCCO3)C(C(=O)NC3CCCC3)c3ccc(F)cc3)n2)o1 (centres undefined),inactive: 33%,
C/C(N)=C(/C#N)C(=O)COC(=O)c1cc(C)n(-c2ccc(F)cc2)c1C,inactive: 11.2%,
CCCOc1ccc(C2/C(=C(\O)c3c(C)[nH]c(C(=O)OC)c3C)C(=O)C(=O)N2CCN(C)C)cc1 (centres undefined),inactive: 10.8%,
CCNc1nc(CN2CCCCC2)nc2scc(-c3ccccc3)c12,inactive: 14%,
CCCCNC(=S)NNC(=O)C1=NN(c2cc(C)ccc2C)C(=O)CC1,inactive: -2.83%,
CC(C)NC(=O)CC1C(=O)N(Cc2ccccc2)C(C)c2nc3ccccc3n21 (centres undefined),inactive: 7.24%,
CCNC(=O)C1(C)CCN(C(=O)c2cccc(C#N)c2)C1 (centres undefined),inactive: 12.4%,
CCCCN(CC)CCNC(=O)c1cc2c(-c3ccc(Cl)cc3)nn(C)c2s1,,inactive
c1ccc2[nH]c(SCc3cn4ccccc4n3)nc2c1,inactive: -12.4%,
Cc1ccc(C(=O)Nc2cccnc2)cc1S(=O)(=O)N1CCCC1,inactive: 3.13%,
O=C(NNS(=O)(=O)c1ccc2ccccc2c1)NC1CCCCC1,inactive: 21.2%,
O=c1c2ccccc2nc(/C=C/c2cccc([N+](=O)[O-])c2)n1CCO,inactive: -14.1%,
O=C(O)c1c(F)c(F)cc2ccccc12,inactive: 16.8%,
CC(=O)Nc1ccc(NC(=O)[C@H](C)NC(=O)c2ccco2)cc1,inactive: 9.71%,
O=C(NC(=S)NNS(=O)(=O)c1ccccc1)c1ccc([N+](=O)[O-])cc1,inactive: -9.47%,
Cc1ccc(NC(=O)Cc2nnc(SCC(=O)NC3CCCC3)n2C)c(C)c1,inactive: -21.3%,
COc1ccccc1/C=C/c1nc(C#N)c(N2CCCCCC2)o1,inactive: 12.7%,
O=C(COC(=O)/C=C/c1cccc(C(F)(F)F)c1)NC(=O)NCc1ccco1,inactive: 13.6%,
NC(=O)c1cccc(-c2ccnc3c2CC(C(=O)NCc2ccccc2)O3)c1 (centres undefined),inactive: -4.24%,
CCOc1ccc(S(=O)(=O)N(C)c2ccc(OCC(=O)NC3=NCCS3)cc2)cc1,inactive: 14.6%,
